Measurements from PMC4336329 (PLoS ONE, 2015).
In all, about 310,000 compounds went through this assay and about 14,000 (4.5%) showed an effect of 50% or more. Effects have a minus sign here. Some of the results follow.

Target: human ether-à-go-go-related gene (hERG) potassium channel (human, UniProt Q12809)
Experiment: primary screen, population patch clamp on CHO cells stably expressing hERG
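Also: peak tail current of the secondary pulse compared with the same well before compound.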

human ether-à-go-go-related gene (hERG) potassium channel, sequence (Q12809 whole entry, looked up): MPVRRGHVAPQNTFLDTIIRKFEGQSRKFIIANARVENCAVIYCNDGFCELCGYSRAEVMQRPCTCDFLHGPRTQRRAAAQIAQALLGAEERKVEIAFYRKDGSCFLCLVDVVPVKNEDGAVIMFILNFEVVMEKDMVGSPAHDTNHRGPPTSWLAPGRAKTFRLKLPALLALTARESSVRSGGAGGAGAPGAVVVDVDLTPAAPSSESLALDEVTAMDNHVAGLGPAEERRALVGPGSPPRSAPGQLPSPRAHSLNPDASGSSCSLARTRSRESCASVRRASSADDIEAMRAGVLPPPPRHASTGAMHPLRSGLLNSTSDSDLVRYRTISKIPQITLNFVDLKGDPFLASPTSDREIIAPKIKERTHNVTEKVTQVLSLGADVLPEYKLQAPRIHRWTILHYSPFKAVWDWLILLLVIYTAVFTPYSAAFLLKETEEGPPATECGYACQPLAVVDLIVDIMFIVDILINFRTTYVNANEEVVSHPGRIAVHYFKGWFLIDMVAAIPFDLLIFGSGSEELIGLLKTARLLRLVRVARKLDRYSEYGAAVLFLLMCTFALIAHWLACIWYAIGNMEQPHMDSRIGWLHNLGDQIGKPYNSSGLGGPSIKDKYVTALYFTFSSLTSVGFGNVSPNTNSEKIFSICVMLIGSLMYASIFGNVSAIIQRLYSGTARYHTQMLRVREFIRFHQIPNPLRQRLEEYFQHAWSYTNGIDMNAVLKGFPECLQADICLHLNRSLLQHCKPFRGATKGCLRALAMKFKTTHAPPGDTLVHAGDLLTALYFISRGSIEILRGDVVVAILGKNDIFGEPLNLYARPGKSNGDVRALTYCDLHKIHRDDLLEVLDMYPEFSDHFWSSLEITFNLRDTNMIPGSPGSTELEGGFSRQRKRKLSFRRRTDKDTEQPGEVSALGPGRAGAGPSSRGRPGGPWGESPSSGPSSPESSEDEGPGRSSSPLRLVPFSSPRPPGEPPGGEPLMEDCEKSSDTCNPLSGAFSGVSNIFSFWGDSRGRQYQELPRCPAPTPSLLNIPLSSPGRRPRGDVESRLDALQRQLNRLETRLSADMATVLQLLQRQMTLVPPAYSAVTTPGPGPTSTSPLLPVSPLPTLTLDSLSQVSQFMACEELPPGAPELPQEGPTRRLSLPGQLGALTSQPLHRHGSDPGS

SMILES | hERG current change (%, negative = inhibition) at 10uM [%]
CCOc1ccc(OCC(O)CN2CCN(S(=O)(=O)c3cccc(C(F)(F)F)c3)CC2)cc1.O=C(O)C(=O)O (stereo not shown) | 13.7
COc1ccc(NC2c3ccccc3C(=O)N2Cc2ccco2)cc1OC (stereo not shown) | -17.2
CCOC(=O)c1ccccc1NC(=S)N1CC(C)CC(C)C1 (stereo not shown) | -7.45
Cc1cccc(N(C(=O)c2csnn2)C(C(=O)NC2CCCC2)c2ccncc2)c1 (stereo not shown) | -23.1
Cc1[nH]nc(SCC(=O)N2CCCCC2)c1[N+](=O)[O-] | 19.8
O=C(CNC(=O)c1ccco1)OCc1c(F)cccc1Cl | -5.42
CCOC(=O)c1cccc(NC(=O)C(NS(=O)(=O)c2ccc3c(c2)CCN3C(C)=O)C(C)C)c1 (stereo not shown) | 1.15
CC(C)CC(=O)Nc1sc2c(c1C(=O)O)CCCCC2 | 25.8
COc1ccc(CC(=O)Nc2nc3n(n2)C(c2ccccc2)CC(=O)N3)cc1OC (stereo not shown) | 5.18
CSc1cccc(NC(=O)CN(C)S(=O)(=O)c2ccc(F)cc2)c1 | -11.1
CCOc1ccc(S(=O)(=O)N2CCN(C(=O)c3ccccc3Cc3ccccc3)CC2)cc1 | 3.09
CCOc1cc(C(=O)O)cc(Cl)c1OCC#N | 10.5
CCN(CC)CCn1c2c(c(SCC(=O)Nc3cccc4ccccc34)nc1=O)CCC2 | -62.7
O=c1[nH]c2ccc(S(=O)(=O)N3CCCCC3)cc2[nH]c1=O | 7.24
CCCCN(C)Cc1c(C)[nH]c2c(Cl)cccc2c1=O | -38.7
O=C(Nc1nnc(SCc2cccc3ccccc23)s1)C1COc2ccccc2O1 (stereo not shown) | -2.81
O=C(c1ccc(OC2CCN(Cc3ccccc3O)CC2)cc1)N1CCCCC1 | 3.29
c1coc(C2Nc3ccccc3C3OCCC23)c1 (stereo not shown) | 6.63
O=C1NC2(CCCCCC2)C(=O)N1Cc1c(F)cccc1Cl | -9.11
CCOc1ccc(C(=O)Nc2cnn(Cc3ccc(Cl)c(Cl)c3)c2)cc1 | 10.3
COc1ccc(C(=O)Nc2nc(CC(=O)NCc3ccc(F)cc3)cs2)cc1 | -34.2
Cc1ccc2oc(=O)c3cnn(CC(=O)N4CCN(c5ccccc5)CC4)c3c2c1 | -20.3

SMILES | hERG current change (%, negative = inhibition) at 10uM [%]
CC(Oc1cc2oc(=O)c3c(c2cc1Cl)CCC3)C(=O)NCCCN1CCOCC1 (stereo not shown) | 12
CCOC(=O)CN(Cc1ccc(OC)c(OC)c1)S(=O)(=O)c1ccc(OC)cc1 | -13.4
O=C(NC(c1ccccc1)c1c(O)ccc2ccccc12)c1ccccc1Cl (stereo not shown) | 17.9
O=C(/C=C/c1ccc2ccccc2n1)N1CCN(c2ccccc2)CC1 | -52.1
Cc1ccc(NC(=O)n2ncc3c(C)cccc32)c(C)c1 | 16.6
COc1cccc(CN(C(=O)COc2ccc(C)cc2)C2CCS(=O)(=O)C2)c1 (stereo not shown) | -13
O=C(NCCCc1ccccc1)c1cnc2n(c1=O)CCS2 | 10.7
COc1ccc(-c2nnn(CC(=O)N(CCCO)C(C(=O)NC3CCCC3)c3ccc(F)cc3)n2)cc1 (stereo not shown) | -8.29
COC(=O)Cn1nnc(-c2cccc(OC)c2)n1 | -2.98
C=CCNC(=S)NNC(=O)c1ccc(OCC(C)C)cc1 | -7.83
CCOc1ccccc1NC(=O)CCNS(=O)(=O)c1ccc2[nH]c(=O)oc2c1 | 9.11
CCOc1cc(/C=N\NC(=O)c2c(C)nc3ccccn23)ccc1O | 5.46
COc1ccc2c(c1)C1NC(=S)NC(C)(O2)C1C(=O)Nc1ccc(Cl)cc1 (stereo not shown) | -5.47
O=C(N/N=C\C=C\c1ccc2c(c1)OCO2)c1cccnc1 | -24.2
COc1cccc2cc(C(=O)NCc3ccccc3Br)c(=O)oc12 | 19
CCOC(=O)c1ccc(NC(=S)NN2CCOCC2)cc1 | 7.59
O=C(NCCCCC(NC(=O)c1ccc([N+](=O)[O-])cc1)C(=O)O)c1ccc([N+](=O)[O-])cc1 (stereo not shown) | -44.7
COC(=O)[C@H](Cc1ccccc1)NC(=O)N1CCN(c2ccccc2)CC1 | -10.8
CC1Nc2ncnc(N3CCOCC3)c2N(Cc2ccccc2)C1=O.O=C(O)C(F)(F)F (stereo not shown) | 10.1
Cc1c(C(=O)/C=C/c2cccs2)oc2ccc(F)cc12 | 11.7
CC(C)CC(=O)Nc1nc2ccc(S(=O)(=O)N3CCOCC3)cc2s1 | 7.14
